Experimental data: article PMC12040169 (PLOS Biology, 2025)
The list shows a part of the results.

What follows are compounds tested on T1, C. trachomatis L2/434/Bu expressing GFP (CTL2-GFP). Details: total inclusion area; 28.5 h, 10 µM; inhibitor.
T1 construct: L2/434/Bu GFP intracellular growth in HeLa cells
Design: species or system HeLa; C. trachomatis total inclusion area by high-content imaging, normalised to DMSO
How it was run: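 High-content images of fixed, Hoechst-stained infected cultures supply inclusion area and count (growth) plus nuclei number (viability), complementing bulk GFP/resorufin fluorescence. MIC determination is unchanged from the primary assay.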

Point of comparison: `Cc1nc(C(F)(F)F)ccc1C(=O)NCC(C)(C)N1CCCCC1` [CBK281864], “% of control remaining” value 126.356. Against it:
- C/C=C/c1ccc(OCCCn2nnc3ccccc32)c(OC)c1 [CBK269271] — lower, 112.626
- CCOC(=O)c1c(NC(=O)CN2CCOCC2)sc2c1CCC2 [CBK262548] — lower, 98.385
- Cc1cc(N2CCCN3CCCCCC32)nc(N)n1 (stereo not shown) [CBK169746] — lower, 56.9422
- CCOc1nc(Nc2nc(-c3ccccc3)cs2)nc(OCC)n1 [CBK262442] — lower, 103.521
- CCOC(=O)c1c(C(C)(C)C)oc2ccc(OCC(=O)c3ccc(OC)cc3)cc12 [CBK264950] — lower, 98.4352
- CC(C)(C)n1cc2c(n1)[C@H]1CN(C(=O)CN3CCCC3=O)C[C@H]1CC2 [CBK283401] — lower, 112.675
- CCOc1ccc(CC(=O)N2CCC(c3ccncc3)CC2)cc1 [CBK283596] — lower, 87.0502
- O=C(O)c1ccc(NC(=O)c2ccccc2F)c(NC(=O)c2ccccc2F)c1 [CBK275363] — lower, 98.8663
- CCc1nc2ccc(C(=O)Nc3ccc(C(N)=O)cc3)cn2c1N(CC)Cc1cccc(Br)c1 [CBK146960] — lower, 103.06
- O=[N+]([O-])c1ccccc1S(=O)(=O)N1CCN(S(=O)(=O)c2ccc(Cl)cc2)CC1 [CBK264311] — lower, 111.464
- Cn1cc(C(=O)NC2CCN(C(=O)c3ccc4c(c3)CCC4)CC2)cn1 [CBK305664] — lower, 43.1125
- CCOc1cc(NC2CCN(C(=O)C(C)CC3CCCC3)CC2)ncn1 (stereo not shown) [CBK306176] — lower, 22.3513
- Cc1ccc(S(=O)(=O)NC2c3cccc4cccc(c34)C2Sc2nnc(N)[nH]2)cc1 (stereo not shown) [CBK265875] — lower, 104.766
- CC(=O)NC1(c2ccccc2)CCN(Cc2ccnn2C)CC1 [CBK281805] — lower, 103.751
- O=C(O)[C@@H]1CCN(Cc2ccccc2)C[C@H]1c1ccccc1 [CBK286840] — lower, 113.644
- COCCCn1c(C)c(C)n2c3c(=O)n(CCN4CCCCC4)c(=O)n(C)c3nc12 [CBK269762] — lower, 83.4279
- O=[N+]([O-])c1cc(-c2nc(-c3cccs3)c(-c3cccs3)[nH]2)ccc1Br [CBK265009] — lower, 112.867
- COc1cccc(COc2cncc(N3CCNCC3)n2)c1OC [CBK200003] — lower, 44.7662
- O=C(O)c1ccc(NC(=O)c2cccc(NC(=O)c3cccc4ccccc34)c2)cc1 [CBK299823] — lower, 65.1319
- O=c1[nH]c2ncc(-c3cccc(CO)c3)nc2n1CC1CC1 [CBK065088] — lower, 86.3295
- Nc1ncc(-c2occc2C=O)nc1NC1CCOCC1 [CBK063789] — lower, 113.321
- Cn1cc(N2CCC(NC(=O)c3ccc(C#N)cc3)C2=O)cn1 (stereo not shown) [CBK305182] — lower, 38.752
- CS(=O)(=O)Nc1nccnc1N1CCN(c2ccccc2)CC1 [CBK048688] — lower, 79.8276
- Cc1noc(NS(=O)(=O)c2ccc(NC(=O)COc3ccccc3Br)cc2)c1C [CBK263918] — lower, 39.3227
- N#CC(c1ccc(O)cc1)N1CCOCC1 (stereo not shown) [CBK261659] — lower, 103.824
- COc1ccc(NC2c3cccc4cccc(c34)C2NS(=O)(=O)c2ccccc2)cc1 (stereo not shown) [CBK264075] — lower, 80.189
- Fc1ccc(CN2CCC(c3nnc4n3CCCCC4)CC2)cc1F [CBK283356] — lower, 94.9362
- CC(=O)C(/N=N\c1ccc(S(=O)(=O)Nc2nccs2)cc1)C(=O)Nc1ccc(Cl)cc1 (stereo not shown) [CBK015826] — lower, 100.423
- CCNC(=O)N[C@H]1CO[C@H]2[C@@H]1OC[C@@H]2n1nnnc1Oc1ccccc1 [CBK289484] — lower, 87.6859
- O=C(CO)N1CC2(CCN(CCO)CC2)c2ccccc21 [CBK131507] — lower, 96.1471
- Cc1cc(CC(=O)N2CCN(C(=O)c3ccco3)CC2)on1 [CBK144465] — lower, 124.597
- Cc1ccc(NC(=O)/C=C/c2ccc3c(c2)OCO3)c(NC(=O)/C=C/c2ccc3c(c2)OCO3)c1 [CBK265423] — lower, 98.3977
- CC(C)(C)c1nnc(NC(=O)c2ccc(F)cc2)s1 [CBK086855] — lower, 70.6258
- Cc1ccc(-n2c(SCC(=O)N3CCc4ccccc43)nnc2-c2ccccc2O)c(C)c1 [CBK268793] — higher, 133.995
- COC(=O)[C@@H]1CN(C(=O)c2cccs2)CCN1C(=O)c1cccnc1 [CBK289610] — lower, 113.12
- COCCNc1cc(-c2cccc3oc4ccccc4c23)ncn1 [CBK090794] — higher, 149.179
- Cc1nc(CN2CCN(C(=O)NCCc3cnn(C)c3)CC2)cs1 [CBK305614] — lower, 64.0197
- CC(Sc1nnc(-c2ccc(Cl)cc2)n1CC(=O)O)C(=O)Nc1ccnn1C(C)C (stereo not shown) [CBK296970] — lower, 74.4199
- CC(=O)OC(c1ccccc1)c1nc2ccccc2[nH]1 (stereo not shown) [CBK110141] — lower, 89.3954
- CC(C)CNC(=O)c1cccc(NC(=O)N2CCC2c2cccs2)c1 (stereo not shown) [CBK306927] — lower, 81.2267
- Cc1nonc1CC(=O)N1CCC[C@@H]2[C@H]1C/C=C/Cc1ccccc1OCC(=O)N2C [CBK292062] — lower, 98.6923
- COc1ccc(C(C)N(CCN2CCOCC2)C(=O)NCc2cccnc2)cc1OC (stereo not shown) [CBK158986] — lower, 82.798
- Cc1ccc(C(F)(F)F)cc1NS(=O)(=O)c1cc(OC2CCNCC2)c2occc2c1 [CBK082763C] — lower, 65.9566
- O=C(c1ccccc1)N1CCC(c2cccc(Cc3ccccc3Cl)n2)CC1 [CBK286085] — lower, 105.118
- CCN1CCCC1CN(Cc1cccs1)CC1CCOC1 (stereo not shown) [CBK282602] — lower, 94.3019
- CCCN(C(=O)OC(C)(C)C)C1CCc2[nH]c(=O)c(C#N)cc2C1 (stereo not shown) [CBK023470] — lower, 59.5674
- OCc1cccc(-c2cncc(NCCc3cccnc3)n2)c1 [CBK037946] — higher, 129.428
- COc1ncccc1C(=O)N1Cc2ccccc2C1 [CBK200324] — lower, 81.4333
- Cc1sc2ncn(CCC(=O)O)c(=O)c2c1C [CBK288191] — lower, 99.847
- CC(C)c1cccc(C(C)C)c1OCCNCCO [CBK262750] — lower, 94.9852
- O=C(C1=C(O)C(=O)N(CCCn2ccnc2)C1c1cccc([N+](=O)[O-])c1)c1cccs1 (stereo not shown) [CBK264591] — lower, 116.28
- Cc1c(C(=O)N2CCn3c(C)nnc3C2)sc2cccc(F)c12 [CBK304923] — lower, 49.6644
- COc1cc(-c2cn3ccnc3c(N3CCN(c4ccncc4)CC3)n2)cc(OC)c1OC [CBK037896] — lower, 93.1051
- CC(=O)Nc1ccc(/C(C)=N\NC(=O)CCN2CCCCC2)cc1 [CBK263509] — lower, 115.952
- Nc1ncc(-c2ccc(C(F)(F)F)cc2)c(C2CCCN(C(=O)c3ccccc3)C2)n1 (stereo not shown) [CBK285790] — lower, 67.4839
- NC(=O)CN1CCC(Cc2ccccc2)CC1 [CBK138319] — lower, 87.2888
- CCNC(=O)N1CC2(CCN(CCn3cccc3)CC2)c2ccccc21 [CBK143945] — lower, 96.5094
- N#Cc1ccc(COc2cccc(Cl)c2Cl)cc1 [CBK002611] — higher, 134.203
- CN1CCN(Cc2c(O)ccc3occ(C(=O)c4ccccc4)c23)CC1 [CBK111438] — lower, 85.9715
- CCC(C)(C)c1ccc(S(=O)(=O)NCC2CC2)cc1 [CBK044994] — lower, 98.8836
- O=C(c1ccno1)N1CCC(Cc2ccccc2)CC1 [CBK200185] — lower, 97.6011
- O=C(/C=C/c1ccccc1)Oc1cccc(NC(=O)C2CC(=O)N(c3ccccc3)C2)c1 (stereo not shown) [CBK264330] — lower, 92.2958
- COc1ccc(C2Nc3ccccc3C(=O)N2c2ccc(C)cc2)cc1Cn1nc(C)c([N+](=O)[O-])c1C (stereo not shown) [CBK263703] — lower, 70.3692
- CCCCOC(=O)CCNc1n[nH]c(=O)[nH]c1=O [CBK027838] — lower, 91.2472
- CC(C)Nc1cncc(OCCCc2ccncc2)n1 [CBK115881] — lower, 88.4044
- CCN1CCCCC1CNC(=O)c1sc(C)nc1C (stereo not shown) [CBK282206] — lower, 83.9314
- Cc1cc2c(cc1C)N(C(=O)CSc1ncn[nH]1)C(C)(C)c1ssc(=S)c1-2 [CBK263786] — lower, 110.983
- Cc1cc(C)nc(N2CCC(CC(=O)NCCCc3ccc(F)cc3)CC2)n1 [CBK285995] — lower, 118.198
- O=C(c1cncc(-c2[nH]nnc2-c2ccccc2)c1)N1CCCC1 [CBK160360] — lower, 97.0484
- O=C(Nc1nc(-c2cccc([N+](=O)[O-])c2)cs1)c1ccc(S(=O)(=O)N2CCCC2)cc1 [CBK102813] — lower, 82.2884
- CO[C@H]1CN(C)C[C@@H]1NC(=O)c1cccc2c1NCCC2 [CBK307107] — lower, 111.615
- CN1CCC(C(=O)N2CCN(CCc3ccccc3)CC2)CC1 [CBK200216] — lower, 98.2986
- Cc1ccc(NC2CC(C)N(C(=O)c3cccc([N+](=O)[O-])c3)c3ccc(C)cc32)cc1 (stereo not shown) [CBK293929] — lower, 98.976
- Cc1c(NC(=O)Nc2ccccc2)sc(=S)n1C [CBK027434] — lower, 72.3615
- C(=C\c1nccnc1OCc1ccccn1)/c1ccccc1 [CBK106874] — lower, 77.8676
- FC(F)(F)c1cc(-c2cn3ccnc3c(Nc3ccc4[nH]ccc4c3)n2)cc(C(F)(F)F)c1 [CBK066356] — lower, 80.5353
- CCOc1ccc(S(=O)(=O)Nc2ccc(C(=O)O)c(O)c2)cc1 [CBK299837] — lower, 85.7216
- CC(C)CC(=O)N1C[C@H]2CCCN(Cc3ccccn3)[C@H]2C1 [CBK285269] — lower, 114.316
